Results from publication PMC10120020.
These are yes or no findings as the source states them, for the method shown. In cells and extracts the contact can be indirect. Some results given as binding are weak or reduced against the parent protein; the word gives no strength.

Target: STING (Calu-1 cells) (human (endogenous in Calu-1)), Q86WV6
Test: co-IP; STAT2-deficient Calu-1 cells restored with WT, T404A, or T404E STAT2, stimulated with 2′3′cGAMP (8 μg/mL) for 3 h
Conditions: remark: other sources report otherwise

binding: binds
B1: IRF3 (Calu-1 cells), Q14653 1-427 (protein)
chain: MGTPKPRILPWLVSQLDLGQLEGVAWVNKSRTRFRIPWKHGLRQDAQQEDFGIFQAWAEATGAYVPGRDKPDLPTWKRNFRSALNRKEGLRLAEDRSKDPHDPHKIYEFVNSGVGDFSQPDTSPDTNGGGSTSDTQEDILDELLGNMVLAPLPDPGPPSLAVAPEPCPQPLRSPSLDNPTPFPNLGPSENPLKRLLVPGEEWEFEVTAFYRGRQVFQQTISCPEGLRLVGSEVGDRTLPGWPVTLPDPGMSLTDRGVMSYVRHVLSCLGGGLALWRAGQWLWAQRLGHCHTYWAVSEELLPNSGHGPDGEVPKDKEGGVFDLGPFIVDLITFTEGSGRSPRYALWFCVGESWPQDQPWTKRLVMVKVVPTCLRALVEMARVGGASSLENTVDLHISNSHPLSLTSDQYKAYLQDLVEGMDFQGPGES
